Screen size: about 310,000 compounds; about 14,000 (4.5%) showed an effect of 50% or more. Effects have a minus sign here. The list shows a part of the results.
molecular target: human ether-à-go-go-related gene (hERG) potassium channel (human, UniProt Q12809); assay: primary screen, population patch clamp on CHO cells stably expressing hERG
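Further: peak tail current of the secondary pulse compared with the same well before compound.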

Sequence of human ether-à-go-go-related gene (hERG) potassium channel (Q12809 whole entry, looked up): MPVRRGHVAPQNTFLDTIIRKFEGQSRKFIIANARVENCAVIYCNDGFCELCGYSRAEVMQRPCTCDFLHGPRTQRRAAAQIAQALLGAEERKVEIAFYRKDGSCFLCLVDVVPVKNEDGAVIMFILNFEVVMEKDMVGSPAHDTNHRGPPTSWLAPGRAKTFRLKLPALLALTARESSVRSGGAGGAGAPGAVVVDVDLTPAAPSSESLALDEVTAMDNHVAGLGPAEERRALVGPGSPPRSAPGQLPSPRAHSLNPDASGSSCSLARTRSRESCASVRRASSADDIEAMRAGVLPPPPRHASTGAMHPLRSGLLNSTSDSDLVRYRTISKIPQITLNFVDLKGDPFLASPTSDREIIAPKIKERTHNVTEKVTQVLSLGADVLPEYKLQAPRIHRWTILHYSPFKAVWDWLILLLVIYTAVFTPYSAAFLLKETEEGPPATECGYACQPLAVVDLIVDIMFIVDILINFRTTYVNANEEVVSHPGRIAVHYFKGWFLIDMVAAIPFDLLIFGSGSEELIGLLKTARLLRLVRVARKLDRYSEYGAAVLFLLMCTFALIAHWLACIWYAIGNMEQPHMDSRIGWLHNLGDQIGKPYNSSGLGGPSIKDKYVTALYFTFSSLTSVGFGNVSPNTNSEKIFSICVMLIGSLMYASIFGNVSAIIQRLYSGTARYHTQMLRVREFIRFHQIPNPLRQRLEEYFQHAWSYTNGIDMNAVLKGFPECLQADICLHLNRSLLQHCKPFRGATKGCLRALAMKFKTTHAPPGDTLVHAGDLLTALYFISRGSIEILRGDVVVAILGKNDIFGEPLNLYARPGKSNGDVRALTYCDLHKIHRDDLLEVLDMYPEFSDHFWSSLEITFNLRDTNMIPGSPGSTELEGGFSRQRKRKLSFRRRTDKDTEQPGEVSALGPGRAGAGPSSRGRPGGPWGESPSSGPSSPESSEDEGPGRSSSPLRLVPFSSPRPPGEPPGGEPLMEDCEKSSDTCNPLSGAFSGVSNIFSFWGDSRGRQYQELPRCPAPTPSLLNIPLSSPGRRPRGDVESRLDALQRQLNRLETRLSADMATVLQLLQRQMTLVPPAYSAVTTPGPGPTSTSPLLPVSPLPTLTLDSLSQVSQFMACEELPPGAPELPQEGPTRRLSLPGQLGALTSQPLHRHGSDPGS

SMILES	hERG current change (%, negative = inhibition) at 10uM [%]
Cc1c(Cc2ccccc2)sc(/N=C/c2ccc3ccccc3c2)c1C(N)=O	6.83
COc1ccc([N+](=O)[O-])cc1N(CC(=O)N1CCOCC1)S(C)(=O)=O	19.2
COc1c(Cl)cc(C(=O)Nc2ccccc2-c2ccccc2)cc1Cl	0.345
O=C(O)c1ccc(Cl)c(S(=O)(=O)Nc2ccc(S(=O)(=O)Nc3cccc(Cl)c3)cc2)c1	16.1
C=CCn1c(N)c(C(=O)OCC)sc1=S	3.45
Nc1ccc(OCCc2ccccc2)cc1	11.4
O=C(CCN1C(=O)/C(=C/c2ccccc2F)SC1=S)NC1C=CS(=O)(=O)C1 (centres unmarked)	15.3
COC(=O)C1=C(c2cccc(C#N)c2)C[C@@H]2CC[C@H]1N2C(=O)N1CCC(C)CC1	-17.1
CC1CCN(C(=S)NCCc2ccccc2)CC1	-15.2
O=C(Nc1cnn(Cc2ccccc2)c1)NC12CC3CC(CC(C3)C1)C2	10.3
COC(=O)CCC/C=C1/SCC(NC(=O)c2ccccc2)/C1=N/O (centres unmarked)	3.06
CCCNC(=O)c1cc(-c2ccc(OC)cc2)on1	-0.519
COCC(=O)Nc1ccc(OC)c(Cl)c1	-5.34
Oc1ccccc1N1CCN(Cc2ncc(-c3ccccc3)o2)CC1	-21.7
COC(=O)c1c(NC(=S)Nc2ccc(F)cc2[N+](=O)[O-])sc2c1CCCCC2	4.46
Cc1cnc(NC(=O)CSc2nnc(N)s2)s1	30.9
O=c1c(Cc2ccc(F)cc2)c(O)ccn1Cc1cccc(Cl)c1	6.07
Cl.OCCN1CCN(CC(O)COc2ccc(C34CC5CC(CC(C5)C3)C4)cc2)CC1 (centres unmarked)	-7.09
CC(C)c1nc2sc3c(=O)[nH]c(=S)[nH]c3c2c2c1CCCC2	31.2
O=C1C=C(c2ccc(OC(F)(F)F)cc2)C[C@@H](c2ccc(F)cc2)C1	-11.3
CC(C)n1nccc1NS(=O)(=O)c1ccccc1	4.04
CCN(CCCNC(=O)COc1cc(=O)n(C)c2ccccc12)c1ccccc1	-41.3
CC(C)CNC(=S)N(CCCO)Cc1cc2cc3c(cc2[nH]c1=O)OCCO3	16

SMILES	hERG current change (%, negative = inhibition) at 10uM [%]
COc1cccc(NC(=O)c2cc3ccccc3o/c2=N\O)c1	-16.1
O=C(CCc1nc(-c2ccc(Cl)cc2)no1)NC1CCCCC1	14.7
COc1cccc(NC(=O)NC2(C(=O)N3CCN(C)CC3)CCCCC2)c1	9.31
COc1ccc(Oc2coc3cc(OCC(=O)N4CCCCC4)ccc3c2=O)cc1	-13.2
COP(=O)(Cc1ccc(C#N)o1)OC	10
CC(=O)N1N=C(c2cccc(NS(C)(=O)=O)c2)CC1c1ccc2c(c1)OCO2 (centres unmarked)	-59.2
Nc1cc(N)nc(SCc2ccc(Cl)cc2)n1	-6.03
O=c1oc2ccccc2c(O)c1CN1CCCCC1	13.9
O=[N+]([O-])c1ccc(C2CCCC/C2=N/OCc2ccc(F)cc2)c([N+](=O)[O-])c1 (centres unmarked)	-7.99
Cc1ccc(NC(=O)CC2=NC(=O)C(CC(=O)Nc3ccccc3C)S2)cc1 (centres unmarked)	20.5
COC(=O)CCN(C(=O)c1ccc(OC(C)=O)cc1)c1ccccn1	9.21
O=C(O)c1cc(Br)ccc1NS(=O)(=O)c1cccc2nsnc12	13.9
O=C(CN1CCOCC1)Nc1ccc(Cl)cc1	-1.12
CCOC(=O)CCCCC(=O)c1[nH]c(=O)[nH]c1CSc1nc2ccccc2[nH]1	23
CC(=O)Nc1sc2c(c1CN1CCN(c3ccc(F)cc3)CC1)CCCC2	-6.73
Cc1n(-c2ccccc2)c2ccc(Cl)cc2[n+]1CCO.[I-]	11.2
NS(=O)(=O)c1ccc(NC(=O)COC(=O)CCC2CCCC2)cc1	41.6
CSc1nc2ccc(NC(=O)c3nn(C(C)C)c(=O)c4ccccc34)cc2s1	-1.98
Cc1ccc(CN2CCN(/N=C/c3ccc(C(=O)O)cc3)CC2)c(C)c1	5.78
CC(=O)c1cccc(CN2CCC(C(=O)Nc3cccc(-c4ccn[nH]4)c3)CC2)c1	-3.45
CC1CCN(C(=O)COC(=O)c2cc3ccccc3cc2O)CC1	3.92
Cc1ccccc1C(=O)N1CCC(C(=O)N(CC(C)C)c2c(N)n(Cc3ccccc3)c(=O)[nH]c2=O)CC1	11.9
CCOC(=O)c1ccc(NC(=S)N2CCN(c3ccccn3)CC2)cc1	17.6

SMILES	hERG current change (%, negative = inhibition) at 10uM [%]
CCN1C(=O)[C@H]2[C@@H](c3ccc(C)cc3)N3C(=O)N(c4ccc(OC)cc4)C(=O)[C@@]3(Cc3ccc(Cl)cc3)[C@H]2C1=O	5.97
CCOc1c2ccc(C(=O)NCc3ccc(OC)cc3)cc2nn1CCOC	8.44
COc1ccc(/C=N/NC(=O)C2CCN(c3ncc(C(F)(F)F)cc3Cl)CC2)cc1	-14.2
O=C(CN1CCN(S(=O)(=O)c2ccccc2F)CC1)NCC1(N2CCOCC2)CCCCC1	-24.4
COc1ccc(/C=C(\NC(=O)c2cccs2)C(=O)N2CCOCC2)cc1OC	3.19
CN(C)S(=O)(=O)c1ccc(NC(=O)C2CCCN(C(=O)c3ccc(Cl)cc3)C2)cc1 (centres unmarked)	-6.75
CCOC(=O)c1nnsc1NC(=O)Nc1ccc(OC)cc1	17.2
Cc1cccc2nc(Cn3c(=O)n(CCC(=O)NCc4ccco4)c(=O)c4sccc43)cc(=O)n12	-5.78
CCN(CC)CCN(Cc1cc2ccc(C)cc2[nH]c1=O)C(=O)Nc1ccc(Cl)cc1	-77.6
N#CCCN(C(=O)COC(=O)COc1ccccc1Cc1ccccc1)c1ccccc1	15
Cn1c(SCc2cccc(F)c2)nnc1-c1cnccn1	1.32
CC(C)N(C)CCOC(=O)/C=C/c1ccccc1.Cl	-4.98
COc1cccc(CN2CCNC(=O)C2CC(=O)NC2CCOCC2)c1OC (centres unmarked)	29.1
CCCn1c(=N)c(C(=O)NC2CCCC2)cc2c(=O)n3cccc(C)c3nc21	-77.4
Cc1ccc(C(=O)N2CCN(S(=O)(=O)c3ccc(C)cc3)CC2)cc1	-20.1
COc1ccccc1N(CC(=O)Nc1ccccc1)S(=O)(=O)c1cccs1	-1.84
Cc1ccc2nc(COc3ccc(Cl)cc3)cc(=O)n2c1	15
Cc1ccc(-c2nc3ccccc3c(=O)n2-c2ncccc2C)cc1	-20.1
O=C(Nc1ccnc(-c2ccncc2)n1)c1ccccc1Cl	26.8
CN(C)/C=N/c1sc2c(c1C#N)CCCC2	-2.74
CCC(C)(C)n1nnnc1C(c1cccs1)N1CC=C(c2ccc(F)cc2)CC1 (centres unmarked)	-5.72
COC(=O)/C=C1/SC(=NC(=O)c2ccc(Cl)cc2)NC1=O	26.7
O=C(NCCCn1ccnc1)c1ccc(OCC(F)(F)F)cc1	-32

SMILES	hERG current change (%, negative = inhibition) at 10uM [%]
CCCC(=O)Nc1cc(Cl)ccc1C	16.5
Cc1ccc(C(=O)Nc2cccnc2N2CCN(C)CC2)cc1	-5.47
C[C@]12CCC(=O)C=C1CCC1C2CC[C@@]2(C)C1CC[C@@]2(O)CC#N (some centres unmarked)	-59.8
Cc1cc(Nc2ccccc2)n(C(=O)c2ccccc2)n1	-0.73
COc1ccc(-c2nnc(SCC(=O)NC3CCCCC3)o2)cc1	-8.16
O=C(NCCN1CCOCC1)c1ccc(Cl)nc1Cl	-2.02
COc1ccc(CCNC(=O)C2CC(=O)N(c3ccc(Br)cc3)C2)cc1OC (centres unmarked)	-34
CCOC(=O)CN(C(=O)CSc1nnc(COc2ccc(OC)cc2)n1C)c1ccccc1	-24.5
CC(=O)N1CCN(C(=O)c2ccccc2NS(=O)(=O)c2ccc(F)cc2)CC1	-0.557
COC(=O)c1cccc(N/C=C(\[N+](=O)[O-])S(=O)(=O)c2ccccc2)c1	8.62
CCOC(=O)c1sc(NC(=O)CN2CCCC2)c(C(=O)OCC)c1C	-6.37
O=C(c1cc(-c2ccc(Br)cc2)n[nH]1)N1CCN(C(=O)c2ccccc2Br)CC1	-32.4
COC(=O)c1c(C)cc(O)c(C=O)c1O	8.62
COC(=O)C1CCN(S(=O)(=O)Cc2ccccc2)CC1	13.5
Cc1cc(C(=O)N/N=C/c2c(C)[nH]c3ccccc23)n[nH]1	19.8
CSc1ccc(-c2nnn(CC(=O)NCc3ccccc3)n2)cc1	10.8
CCc1ccc(NC(=O)Nc2c(C)n(C)n(-c3ccccc3)c2=O)cc1	3.74
O=Cc1cn(CCC(=O)O)nc1-c1cc2ccccc2o1	-5.41
O=C(COc1ccc2cc(Br)ccc2c1)N1CCCC1	-50.1
COC(=O)Cn1c2ccc(OC)cc2c2nc3ccccc3nc21	-7.43

Source: paper PMC4336329 (PLoS ONE, 2015)
